Measurements: the supplement of paper PMC4967469
pIC50: −log10 of the molar value. A lower IC50 marks a more sensitive line; a fit beyond the top or the lowest dose is shown as a bound at that dose. AUC sums up the same curve from the lowest dose to the 256-fold higher top dose: 1 means no effect, lower means more sensitive. A top dose marked as inferred comes from the curve model; the source does not state it. For part of these data: An entry number marks a drug with two screens in the source, which often give different values.

What was measured:
Test in all cases: Viability of human cancer cell lines after 72 h of drug (GDSC screen)
[1] = compound: Cc1cc(N2CCOCC2)cc2[nH]c(-c3c(NC[C@@H](O)c4cccc(Cl)c4)cc[nH]c3=O)nc12 [BMS-536924]
Experimental: (§1)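 Human cancer cell lines in 384-well plates, medium with 10% serum, drug for 72 h over a 256-fold dose range (nine 2-fold or five 4-fold steps up to the top dose). Adherent lines were fixed and stained with the nucleic acid dye Syto60, suspension lines read with resazurin; signal relative to control wells, capped at 0 and 100%. One two-parameter sigmoid per drug and line, fitted in a mixed model over all curves with the slope shared within a line.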

[2] = compound: CCNc1cc(NC2CCC(O)CC2)nc(Nc2ccc3c(ccn3Cc3ccccc3)c2)n1 [CGP-082996 (CINK4)]; details: top dose 5.12 µM; top dose inferred
Experimental: as §1

[3] = compound: O=C(c1cc(Cc2n[nH]c(=O)c3ccccc23)ccc1F)N1CCN(C(=O)C2CC2)CC1 [Olaparib]
Experimental: as §1

[4] = compound: Cc1ccc(-n2nc(C(C)(C)C)cc2NC(=O)Nc2ccc(OCCN3CCOCC3)c3ccccc23)cc1 [BIRB 0796]; details: top dose 10 µM; top dose inferred
Experimental: as §1

[5] = compound: Cc1cccc(-c2[nH]c(C(C)(C)C)nc2-c2ccc3nccnc3c2)n1 [SB-525334]; details: top dose 20 µM; top dose inferred
Experimental: as §1

[6] = compound: COc1cc(N2CCN(C)CC2)ccc1Nc1ncc2c(n1)N(C)c1ccccc1C(=O)N2C [XMD8-85]; details: top dose 8 µM; top dose inferred
Experimental: as §1

[7] = compound: O=C1NC(=O)c2c1c(-c1ccccc1Cl)cc1[nH]c3ccc(O)cc3c21 [Wee1 inhibitor 681640]; details: top dose 2 µM; top dose inferred
Experimental: as §1

[8] = compound: CC(C)=CC[C@@H](O)C1=CC(=O)c2c(O)ccc(O)c2C1=O [Shikonin]; details: top dose 16 µM; top dose inferred
Experimental: as §1

[9] = compound: CNC(=O)c1ccc(Nc2cc(Nc3ccccc3S(=O)(=O)C(C)C)c3cc[nH]c3n2)nc1 [HG-5-113-01]; details: top dose 10 µM; top dose inferred
Experimental: as §1

[10] = compound: COc1cc(-c2nn([C@H]3CC[C@H](N4CCN(C(C)=O)CC4)CC3)c3ncnc(N)c23)ccc1NC(=O)c1cc2ccccc2n1C [A-770041]; details: top dose 5.12 µM; top dose inferred
Experimental: as §1

[11] = compound: NC(=O)c1ccc(N(C(N)=O)c2c(F)cccc2F)nc1-c1ccc(F)cc1F [VX-702]; details: top dose 2 µM; top dose inferred
Experimental: as §1

[12] = top dose 4 µM, screen: GDSC drug entry 1091, top dose inferred
[13] = top dose 5.12 µM, screen: GDSC drug entry 62
[14] = top dose 5 µM, screen: GDSC drug entry 1017, top dose inferred
[15] = top dose 10 µM, screen: GDSC drug entry 1495

Cell Line | AUC [1, 12] | pIC50 [1, 12] | AUC [1, 13] | pIC50 [1, 13] | AUC [2] | pIC50 [2] | AUC [3, 14] | pIC50 [3, 14] | AUC [3, 15] | pIC50 [3, 15] | AUC [4] | pIC50 [4] | AUC [5] | pIC50 [5] | AUC [6] | pIC50 [6] | AUC [7] | pIC50 [7] | AUC [8] | pIC50 [8] | AUC [9] | pIC50 [9] | AUC [10] | pIC50 [10] | AUC [11] | pIC50 [11]
8-MG-BA (glioma, adherent) | 0.902 | < 5.40 | 0.853 | 5.44 | 0.942 | < 5.29 | 0.902 | < 5.30 | 0.82 | 5.28 | 0.983 | < 5.00 | 0.964 | < 4.70 | 0.902 | < 5.10 | 0.847 | 5.87 | 0.199 | 6.86 | 0.731 | 5.57 | 0.83 | 5.53 | 0.988 | < 5.70
A101D (melanoma, adherent) | 0.919 | < 5.40 | 0.759 | 5.66 | 0.834 | 5.35 | 0.862 | < 5.30 | 0.939 | < 5.00 | 0.976 | < 5.00 | 0.936 | < 4.70 | 0.846 | 5.10 | 0.975 | < 5.70 | 0.077 | > 7.20 | 0.808 | 5.18 | 0.773 | 5.61 | 0.834 | 5.76
A253 (head and neck, adherent) | 0.921 | < 5.40 | 0.964 | < 5.29 | 0.977 | < 5.29 | 0.989 | < 5.30 | 0.929 | < 5.00 | 0.982 | < 5.00 | 0.986 | < 4.70 | 0.949 | < 5.10 | 0.989 | < 5.70 | 0.056 | > 7.20 | 0.774 | 5.42 | 0.97 | < 5.29 | 0.988 | < 5.70
A388 (skin, adherent) | 0.981 | < 5.40 | 0.884 | < 5.29 | 0.918 | < 5.29 | 0.966 | < 5.30 | 0.96 | < 5.00 | 0.88 | < 5.00 | 0.972 | < 4.70 | 0.824 | 5.24 | 0.982 | < 5.70 | 0.503 | 5.99 | 0.699 | 5.61 | 0.792 | 5.57 | 0.966 | < 5.70
A498 (kidney, adherent) | 0.778 | 5.60 | 0.809 | 5.34 | 0.898 | < 5.29 | 0.965 | < 5.30 | 0.921 | < 5.00 | 0.979 | < 5.00 | 0.978 | < 4.70 | 0.81 | 5.15 | 0.962 | < 5.70 | 0.237 | 6.94 | 0.693 | 5.54 | 0.97 | < 5.29 | 0.979 | < 5.70
ALL-PO (lymphoblastic leukaemia, suspension) | 0.893 | < 5.40 | 0.533 | 6.40 | 0.769 | 5.69 | 0.867 | 5.31 | 0.957 | < 5.00 | 0.974 | < 5.00 | 0.939 | < 4.70 | 0.809 | 5.35 | 0.822 | 5.90 | 0.301 | 6.57 | 0.557 | 6.04 | 0.908 | < 5.29 | 0.875 | < 5.70
AMO-1 (haematopoietic neoplasm, suspension) | 0.724 | 6.01 | 0.823 | 5.61 | 0.963 | < 5.29 | 0.991 | < 5.30 | 0.99 | < 5.00 | 0.991 | < 5.00 | 0.971 | < 4.70 | 0.924 | < 5.10 | 0.991 | < 5.70 | 0.511 | 5.97 | 0.715 | 5.64 | 0.986 | < 5.29 | 0.952 | < 5.70
ATN-1 (T-cell lymphoblastic leukaemia, suspension) | 0.737 | 5.95 | 0.455 | 6.61 | 0.819 | 5.57 | 0.966 | < 5.30 |  |  | 0.988 | < 5.00 | 0.98 | < 4.70 | 0.919 | < 5.10 | 0.729 | 6.27 | 0.42 | 6.21 | 0.666 | 5.76 | 0.972 | < 5.29 | 0.94 | < 5.70
BE-13 (lymphoblastic leukaemia, suspension) | 0.923 | < 5.40 | 0.906 | < 5.29 | 0.91 | < 5.29 | 0.946 | < 5.30 | 0.97 | < 5.00 | 0.987 | < 5.00 | 0.964 | < 4.70 | 0.959 | < 5.10 | 0.935 | < 5.70 | 0.435 | 6.17 | 0.465 | 6.30 | 0.869 | 5.37 | 0.983 | < 5.70
BL-41 (Burkitt lymphoma, suspension) | 0.992 | < 5.40 | 0.897 | 5.43 | 0.847 | 5.60 | 0.994 | < 5.30 | 0.994 | < 5.00 | 0.989 | < 5.00 | 0.911 | 4.79 | 0.839 | 5.43 | 0.975 | < 5.70 | 0.418 | 6.20 | 0.654 | 5.82 | 0.645 | 6.14 | 0.994 | < 5.70
BT-474 (breast, adherent) | 0.978 | < 5.40 | 0.981 | < 5.29 | 0.969 | < 5.29 | 0.984 | < 5.30 | 0.954 | < 5.00 | 0.985 | < 5.00 | 0.815 | 4.90 | 0.974 | < 5.10 | 0.982 | < 5.70 | 0.289 | 6.63 | 0.897 | < 5.00 | 0.933 | < 5.29 | 0.986 | < 5.70
Becker (glioma, adherent) | 0.956 | < 5.40 | 0.813 | 5.50 | 0.983 | < 5.29 | 0.978 | < 5.30 | 0.883 | < 5.00 | 0.954 | < 5.00 | 0.956 | < 4.70 | 0.817 | 5.29 | 0.935 | < 5.70 | 0.636 | 5.60 | 0.816 | 5.19 | 0.783 | 5.61 | 0.979 | < 5.70
CAS-1 (glioma, adherent) | 0.95 | < 5.40 | 0.887 | < 5.29 | 0.976 | < 5.29 | 0.974 | < 5.30 | 0.965 | < 5.00 | 0.955 | < 5.00 | 0.98 | < 4.70 | 0.876 | < 5.10 | 0.946 | < 5.70 | 0.47 | 6.09 | 0.89 | < 5.00 | 0.929 | < 5.29 | 0.981 | < 5.70
CGTH-W-1 (thyroid, adherent) | 0.913 | < 5.40 | 0.812 | 5.57 | 0.96 | < 5.29 | 0.964 | < 5.30 | 0.985 | < 5.00 | 0.903 | < 5.00 | 0.984 | < 4.70 | 0.867 | 5.15 | 0.982 | < 5.70 | 0.459 | 6.11 | 0.778 | 5.40 | 0.976 | < 5.29 | 0.985 | < 5.70
COLO-668 (small cell lung carcinoma, adherent) | 0.914 | < 5.40 | 0.677 | 6.00 | 0.985 | < 5.29 | 0.988 | < 5.30 | 0.985 | < 5.00 | 0.904 | < 5.00 | 0.858 | 4.79 | 0.919 | < 5.10 | 0.931 | < 5.70 | 0.664 | 5.55 | 0.875 | 5.01 | 0.97 | < 5.29 | 0.989 | < 5.70
ES8 (Ewing sarcoma, adherent) | 0.703 | 6.05 | 0.787 | 5.69 | 0.975 | < 5.29 |  |  |  |  | 0.941 | < 5.00 | 0.852 | 4.86 | 0.827 | 5.36 | 0.942 | < 5.70 | 0.409 | 6.24 | 0.492 | 6.23 | 0.87 | 5.38 | 0.974 | < 5.70
IST-SL2 (small cell lung carcinoma, suspension) | 0.987 | < 5.40 | 0.923 | < 5.29 | 0.862 | 5.36 | 0.948 | < 5.30 | 0.964 | < 5.00 | 0.966 | < 5.00 |  |  | 0.798 | 5.42 | 0.958 | < 5.70 | 0.253 | 6.71 | 0.945 | < 5.00 | 0.663 | 6.04 | 0.985 | < 5.70
LB647-SCLC (small cell lung carcinoma, semi-adherent) | 0.943 | < 5.40 | 0.901 | < 5.29 | 0.981 | < 5.29 | 0.893 | < 5.30 | 0.983 | < 5.00 | 0.938 | < 5.00 |  |  | 0.957 | < 5.10 | 0.969 | < 5.70 | 0.278 | 6.67 | 0.694 | 5.63 | 0.85 | 5.34 | 0.938 | < 5.70
NOMO-1 (acute myeloid leukaemia, suspension) | 0.971 | < 5.40 | 0.897 | < 5.29 | 0.97 | < 5.29 |  |  |  |  | 0.982 | < 5.00 | 0.977 | < 4.70 | 0.89 | < 5.10 | 0.882 | < 5.70 | 0.533 | 5.91 | 0.78 | 5.33 | 0.941 | < 5.29 | 0.851 | 5.73
